Source: article PMC7865452
No constants are given. Whether binding was seen depends on the method and setting. Binding seen in cells or lysates may run through a third protein. Some binding calls cover weakened binding; strength is not graded here. For part of these data: Tags and fused reporters may be left off the sequences shown.

Chains of the proteins cited; added tags and fusions are not shown.
UniProt O75340: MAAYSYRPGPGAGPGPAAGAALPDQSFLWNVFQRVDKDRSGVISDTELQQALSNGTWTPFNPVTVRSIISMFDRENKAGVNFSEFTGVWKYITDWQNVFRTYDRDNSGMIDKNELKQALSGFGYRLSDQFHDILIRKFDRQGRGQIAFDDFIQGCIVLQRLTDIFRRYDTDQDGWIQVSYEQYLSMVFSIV
UniProt O95292: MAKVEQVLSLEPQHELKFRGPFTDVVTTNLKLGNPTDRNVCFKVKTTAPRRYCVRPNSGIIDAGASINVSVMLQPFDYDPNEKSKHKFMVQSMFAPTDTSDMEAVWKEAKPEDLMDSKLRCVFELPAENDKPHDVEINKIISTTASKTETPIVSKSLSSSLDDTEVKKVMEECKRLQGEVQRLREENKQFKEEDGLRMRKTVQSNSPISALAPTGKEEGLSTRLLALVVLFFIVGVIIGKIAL

T1: GFP-fused CDIP1 (cell death-inducing p53 target protein 1) (human) (UniProt Q9H305)
T1 sequence: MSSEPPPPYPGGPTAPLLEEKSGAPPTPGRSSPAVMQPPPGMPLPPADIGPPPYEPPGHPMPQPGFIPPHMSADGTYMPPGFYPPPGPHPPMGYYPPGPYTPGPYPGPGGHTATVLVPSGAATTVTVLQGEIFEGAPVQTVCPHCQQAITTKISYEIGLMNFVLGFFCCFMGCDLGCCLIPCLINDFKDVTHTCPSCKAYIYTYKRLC

B1: CDIP1, endogenous in HEK293 cells treated with BFA (protein, UniProt Q9H305 1-208)
chain: T1 sequence
B2: Peflin, endogenous in HEK293 cells (protein, UniProt Q9UBV8 1-284)
chain: MASYPYRQGCPGAAGQAPGAPPGSYYPGPPNSGGQYGSGLPPGGGYGGPAPGGPYGPPAGGGPYGHPNPGMFPSGTPGGPYGGAAPGGPYGQPPPSSYGAQQPGLYGQGGAPPNVDPEAYSWFQSVDSDHSGYISMKELKQALVNCNWSSFNDETCLMMINMFDKTKSGRIDVYGFSALWKFIQQWKNLFQQYDRDRSGSISYTELQQALSQMGYNLSPQFTQLLVSRYCPRSANPAMQLDRFIQVCTQLQVLTEAFREKDTAVQGNIRLSFEDFVTMTASRML
B3: Sec31A, endogenous in HEK293 cells (protein, UniProt O94979 1-1220)
chain: MKLKEVDRTAMQAWSPAQNHPIYLATGTSAQQLDATFSTNASLEIFELDLSDPSLDMKSCATFSSSHRYHKLIWGPYKMDSKGDVSGVLIAGGENGNIILYDPSKIIAGDKEVVIAQNDKHTGPVRALDVNIFQTNLVASGANESEIYIWDLNNFATPMTPGAKTQPPEDISCIAWNRQVQHILASASPSGRATVWDLRKNEPIIKVSDHSNRMHCSGLAWHPDVATQMVLASEDDRLPVIQMWDLRFASSPLRVLENHARGILAIAWSMADPELLLSCGKDAKILCSNPNTGEVLYELPTNTQWCFDIQWCPRNPAVLSAASFDGRISVYSIMGGSTDGLRQKQVDKLSSSFGNLDPFGTGQPLPPLQIPQQTAQHSIVLPLKKPPKWIRRPVGASFSFGGKLVTFENVRMPSHQGAEQQQQQHHVFISQVVTEKEFLSRSDQLQQAVQSQGFINYCQKKIDASQTEFEKNVWSFLKVNFEDDSRGKYLELLGYRKEDLGKKIALALNKVDGANVALKDSDQVAQSDGEESPAAEEQLLGEHIKEEKEESEFLPSSGGTFNISVSGDIDGLITQALLTGNFESAVDLCLHDNRMADAIILAIAGGQELLARTQKKYFAKSQSKITRLITAVVMKNWKEIVESCDLKNWREALAAVLTYAKPDEFSALCDLLGTRLENEGDSLLQTQACLCYICAGNVEKLVACWTKAQDGSHPLSLQDLIEKVVILRKAVQLTQAMDTSTVGVLLAAKMSQYANLLAAQGSIAAALAFLPDNTNQPNIMQLRDRLCRAQGEPVAGHESPKIPYEKQQLPKGRPGPVAGHHQMPRVQTQQYYPHGENPPPPGFIMHGNVNPNAAGQLPTSPGHMHTQVPPYPQPQPYQPAQPYPFGTGGSAMYRPQQPVAPPTSNAYPNTPYISSASSYTGQSQLYAAQHQASSPTSSPATSFPPPPSSGASFQHGGPGAPPSSSAYALPPGTTGTLPAASELPASQRTGPQNGWNDPPALNRVPKKKKMPENFMPPVPITSPIMNPLGDPQSQMLQQQPSAPVPLSSQSSFPQPHLPGGQPFHGVQQPLGQTGMPPSFSKPNIEGAPGAPIGNTFQHVQSLPTKKITKKPIPDEHLILKTTFEDLIQRCLSSATDPQTKRKLDDASKRLEFLYDKLREQTLSPTITSGLHNIARSIETRNYSEGLTMHTHIVSTSNFSETSAFMPVLKVVLTQANKLGV

Key:
[1] = molecular target: Apoptosis-linked gene 2 (ALG-2), endogenous in HEK293 cells (human (endogenous in HEK293)) (UniProt O75340); assay: co-IP; HEK293 treated with BFA (0.2 ug/mL, 9 h); HKM buffer, 1% CHAPS; rabbit polyclonal antibody against ALG-2, Protein G magnetic beads; 5 mM EGTA; Western blot
[2] = molecular target: Apoptosis-linked gene 2 (ALG-2), endogenous in HEK293 cells (human (endogenous in HEK293)) (UniProt O75340); assay: co-IP; HEK293 treated with BFA (0.2 ug/mL, 9 h); HKM buffer, 1% CHAPS; rabbit polyclonal antibody against ALG-2, Protein G magnetic beads; 10 uM CaCl2; Western blot
[3] = molecular target: VAPB, endogenous in HEK293 cells treated with BFA (human (endogenous in HEK293)) (UniProt O95292); assay: co-IP; HEK293 treated with BFA (9 h); HKM buffer, 1% CHAPS; rabbit polyclonal antibody against VAPB, Protein G magnetic beads; 10 uM CaCl2; Western blot
[4] = molecular target: VAPB, endogenous in HEK293 cells treated with BFA (human (endogenous in HEK293)) (UniProt O95292); assay: co-IP; HEK293 treated with BFA (9 h); HKM buffer, 1% CHAPS; rabbit polyclonal antibody against VAPB, Protein G magnetic beads; 5 mM EGTA; Western blot
[5] = molecular target: T1, GFP-fused CDIP1 (cell death-inducing p53 target protein 1) (human); assay: co-IP; cleared lysate of transfected HEK293 (HKM buffer, 0.2% Triton X-100); GST-fused GFP nanobody on glutathione beads; 10 uM CaCl2; overnight, 4 C; Western blot

Binder | binding [1] | binding [2] | binding [3] | binding [4] | binding [5]
B1 | no binding (condition: with 5 mM EGTA) | binds | binds | binds | –
B2 | – | – | – | – | binds
B3 | – | – | – | – | no binding
